# Experimental data taken from the supplement of paper PMC8728848.
# The other results are listed elsewhere or left out.
# B1: Gal 7 (Homo sapiens) (protein)
# chain: MSNVPHKSSLPEGIRPGTVLRIRGLVPPNASRFHVNLLCGEEGGSDAALHFNPRLDTSEVVFNSKEGGSWGREERGPGVPFGRGQPFEVLIIASDDGFKAVVGDAQYHHFRHRLPLARVRLVEVGGDVQLDSVRIF
# Key:
# Experiment in all cases: glycan array binding signal (z-score within array); higher = stronger binding
# Conditions in all cases: glycan notation: IUPAC condensed, linker removed
# Fuc(a1-2)Gal = biological target: Fuc(a1-2)Gal
# Summary of the method: (§1)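 The binding signal is a Z-score computed within each array and averaged over linkers. Arrays of the same protein sequence at different concentrations or buffers were also averaged together. Data originate from 3228 arrays in the Consortium for Functional Glycomics database, kept only where the protein sequence was available.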
# Fuc(a1-2)Gal(b1-3)GalNAc = biological target: Fuc(a1-2)Gal(b1-3)GalNAc
# Summary of the method: as §1
# [1] = biological target: Fuc(a1-2)Gal(b1-3)GalNAc(a1-3)[Fuc(a1-2)]Gal(b1-4)Glc
# Summary of the method: as §1
# [2] = biological target: Fuc(a1-2)Gal(b1-3)GalNAc(a1-3)[Fuc(a1-2)]Gal(b1-4)GlcNAc
# Summary of the method: as §1
# [3] = biological target: Fuc(a1-2)Gal(b1-3)GalNAc(b1-3)Gal
# Summary of the method: as §1
# [4] = biological target: Fuc(a1-2)Gal(b1-3)GalNAc(b1-3)Gal(a1-4)Gal(b1-4)Glc
# Summary of the method: as §1
# [5] = biological target: Fuc(a1-2)Gal(b1-3)GalNAc(b1-3)Gal(b1-4)Glc
# Summary of the method: as §1
# [6] = biological target: Fuc(a1-2)Gal(b1-3)GalNAc(b1-4)[Neu5Ac(a2-3)]Gal(b1-4)Glc
# Summary of the method: as §1
# Fuc(a1-2)Gal(b1-3)GlcNAc = biological target: Fuc(a1-2)Gal(b1-3)GlcNAc
# Summary of the method: as §1
# [7] = biological target: Fuc(a1-2)Gal(b1-3)GlcNAc(b1-2)Man(a1-3)[Fuc(a1-2)Gal(b1-3)GlcNAc(b1-2)Man(a1-6)]Man(b1-4)GlcNAc(b1-4)GlcNAc
# Summary of the method: as §1
# [8] = biological target: Fuc(a1-2)Gal(b1-3)GlcNAc(b1-2)Man(a1-3)[Fuc(a1-2)Gal(b1-3)GlcNAc(b1-2)Man(a1-6)]Man(b1-4)GlcNAc(b1-4)[Fuc(a1-6)]GlcNAc
# Summary of the method: as §1
# [9] = biological target: Fuc(a1-2)Gal(b1-3)GlcNAc(b1-3)Gal(b1-4)Glc
# Summary of the method: as §1
# [10] = biological target: Fuc(a1-2)Gal(b1-3)GlcNAc(b1-3)GalNAc
# Summary of the method: as §1
# [11] = biological target: Fuc(a1-2)Gal(b1-3)GlcNAc(b1-3)[Fuc(a1-2)Gal(b1-3)GlcNAc(b1-6)]GalNAc
# Summary of the method: as §1
# [12] = biological target: Fuc(a1-2)Gal(b1-3)GlcNAc(b1-3)[Fuc(a1-3)[Gal(b1-4)]GlcNAc(b1-6)]Gal(b1-4)Glc
# Summary of the method: as §1
# [13] = biological target: Fuc(a1-2)Gal(b1-3)GlcNAc(b1-3)[Gal(b1-4)GlcNAc(b1-6)]Gal(b1-4)Glc
# Summary of the method: as §1
# [14] = biological target: Fuc(a1-2)Gal(b1-3)GlcNAc(b1-3)[Neu5Ac(a2-6)Gal(b1-4)GlcNAc(b1-6)]Gal(b1-4)Glc
# Summary of the method: as §1
# [15] = biological target: Fuc(a1-2)Gal(b1-3)GlcNAc6S
# Summary of the method: as §1
# [16] = biological target: Fuc(a1-2)Gal(b1-3)[Fuc(a1-4)]GlcNAc
# Summary of the method: as §1
# [17] = biological target: Fuc(a1-2)Gal(b1-3)[Fuc(a1-4)]GlcNAc(b1-2)Man(a1-3)[Fuc(a1-2)Gal(b1-3)[Fuc(a1-4)]GlcNAc(b1-2)Man(a1-3)]Man(b1-4)GlcNAc(b1-4)GlcNAc
# Summary of the method: as §1
# [18] = biological target: Fuc(a1-2)Gal(b1-3)[Fuc(a1-4)]GlcNAc(b1-2)Man(a1-3)[Fuc(a1-2)Gal(b1-3)[Fuc(a1-4)]GlcNAc(b1-2)Man(a1-6)]Man(b1-4)GlcNAc(b1-4)GlcNAc
# Summary of the method: as §1
# [19] = biological target: Fuc(a1-2)Gal(b1-3)[Fuc(a1-4)]GlcNAc(b1-2)Man(a1-3)[Fuc(a1-2)Gal(b1-3)[Fuc(a1-4)]GlcNAc(b1-2)Man(a1-6)]Man(b1-4)GlcNAc(b1-4)[Fuc(a1-6)]GlcNAc(b1-4)[Fuc(a1-6)]GlcNAc
# Summary of the method: as §1
# [20] = biological target: Fuc(a1-2)Gal(b1-3)[Fuc(a1-4)]GlcNAc(b1-2)Man(a1-6)[Fuc(a1-2)Gal(b1-3)[Fuc(a1-4)]GlcNAc(b1-2)Man(a1-3)]Man(b1-4)GlcNAc(b1-4)[Fuc(a1-6)]GlcNAc
# Summary of the method: as §1
# [21] = biological target: Fuc(a1-2)Gal(b1-3)[Fuc(a1-4)]GlcNAc(b1-3)[Fuc(a1-3)[Gal(b1-4)]GlcNAc(b1-6)]Gal(b1-4)Glc
# Summary of the method: as §1
# [22] = biological target: Fuc(a1-2)Gal(b1-3)[Fuc(a1-4)]GlcNAc(b1-3)[Gal(b1-4)GlcNAc(b1-6)]Gal(b1-4)Glc
# Summary of the method: as §1
# [23] = biological target: Fuc(a1-2)Gal(b1-4)Fuc(a1-3)]GlcNAc(b1-2)Man(a1-3)[Fuc(a1-2)Gal(b1-4)[Fuc(a1-3)]GlcNAc(b1-2)Man(a1-6)]Man(b1-4)GlcNAc(b1-4)GlcNAc
# Summary of the method: as §1
# Fuc(a1-2)Gal(b1-4)Glc = biological target: Fuc(a1-2)Gal(b1-4)Glc
# Summary of the method: as §1
# Fuc(a1-2)Gal(b1-4)Glc6S = biological target: Fuc(a1-2)Gal(b1-4)Glc6S
# Summary of the method: as §1
# Fuc(a1-2)Gal(b1-4)GlcNAc = biological target: Fuc(a1-2)Gal(b1-4)GlcNAc
# Summary of the method: as §1
# [24] = biological target: Fuc(a1-2)Gal(b1-4)GlcNAc(b1-2)Man
# Summary of the method: as §1
# [25] = biological target: Fuc(a1-2)Gal(b1-4)GlcNAc(b1-2)Man(a1-3)[Fuc(a1-2)Gal(b1-4)GlcNAc(b1-2)Man(a1-6)]Man(b1-4)GlcNAc(b1-4)GlcNAc
# Summary of the method: as §1
# [26] = biological target: Fuc(a1-2)Gal(b1-4)GlcNAc(b1-2)Man(a1-3)[Fuc(a1-2)Gal(b1-4)GlcNAc(b1-2)Man(a1-6)]Man(b1-4)GlcNAc(b1-4)[Fuc(a1-6)]GlcNAc
# Summary of the method: as §1
# [27] = biological target: Fuc(a1-2)Gal(b1-4)GlcNAc(b1-2)[Fuc(a1-2)Gal(b1-4)GlcNAc(b1-4)]Man(a1-3)[Fuc(a1-2)Gal(b1-4)GlcNAc(b1-2)Man(a1-6)]Man(b1-4)GlcNAc(b1-4)GlcNAc
# Summary of the method: as §1
# [28] = biological target: Fuc(a1-2)Gal(b1-4)GlcNAc(b1-3)Gal(b1-4)GlcNAc
# Summary of the method: as §1
# [29] = biological target: Fuc(a1-2)Gal(b1-4)GlcNAc(b1-3)Gal(b1-4)GlcNAc(b1-2)Man(a1-3)[Fuc(a1-2)Gal(b1-4)GlcNAc(b1-3)Gal(b1-4)GlcNAc(b1-2)Man(a1-6)]Man(b1-4)GlcNAc(b1-4)GlcNAc
# Summary of the method: as §1
# [30] = biological target: Fuc(a1-2)Gal(b1-4)GlcNAc(b1-3)Gal(b1-4)GlcNAc(b1-3)Gal(b1-4)GlcNAc
# Summary of the method: as §1
# [31] = biological target: Fuc(a1-2)Gal(b1-4)GlcNAc(b1-3)GalNAc
# Summary of the method: as §1
binder,measurement,setting,value
B1,glycan array binding signal (z-score),Fuc(a1-2)Gal,-0.282
same,glycan array binding signal (z-score),Fuc(a1-2)Gal(b1-3)GalNAc,0.427
same,glycan array binding signal (z-score),[1],0.02
same,glycan array binding signal (z-score),[2],-0.264
same,glycan array binding signal (z-score),[3],-0.329
same,glycan array binding signal (z-score),[4],-0.316
same,glycan array binding signal (z-score),[5],1.09
same,glycan array binding signal (z-score),[6],-0.316
same,glycan array binding signal (z-score),Fuc(a1-2)Gal(b1-3)GlcNAc,-0.279
same,glycan array binding signal (z-score),[7],0.053
same,glycan array binding signal (z-score),[8],0.184
same,glycan array binding signal (z-score),[9],-0.265
same,glycan array binding signal (z-score),[10],-0.125
same,glycan array binding signal (z-score),[11],0.136
same,glycan array binding signal (z-score),[12],-0.35
same,glycan array binding signal (z-score),[13],-0.271
same,glycan array binding signal (z-score),[14],-0.179
same,glycan array binding signal (z-score),[15],0.159
same,glycan array binding signal (z-score),[16],-0.167
same,glycan array binding signal (z-score),[17],-0.195
same,glycan array binding signal (z-score),[18],0.34
same,glycan array binding signal (z-score),[19],-0.151
same,glycan array binding signal (z-score),[20],0.558
same,glycan array binding signal (z-score),[21],-0.239
same,glycan array binding signal (z-score),[22],-0.247
same,glycan array binding signal (z-score),[23],-0.059
same,glycan array binding signal (z-score),Fuc(a1-2)Gal(b1-4)Glc,0.571
same,glycan array binding signal (z-score),Fuc(a1-2)Gal(b1-4)Glc6S,0.834
same,glycan array binding signal (z-score),Fuc(a1-2)Gal(b1-4)GlcNAc,-0.315
same,glycan array binding signal (z-score),[24],-0.179
same,glycan array binding signal (z-score),[25],0.086
same,glycan array binding signal (z-score),[26],0.123
same,glycan array binding signal (z-score),[27],0.109
same,glycan array binding signal (z-score),[28],5.81
same,glycan array binding signal (z-score),[29],5.09
same,glycan array binding signal (z-score),[30],7.12
same,glycan array binding signal (z-score),[31],0.082
